# Source: the supplement of paper PMC3334620
# Whole data set: some 33,000 sequences, median “E-score (-0.5 to 0.5)” near -0.035, cut for the highest 2% near 0.35. Some of the results follow.
# Target: T1, Pdr3 (UniProt P33200)
# T1 sequence: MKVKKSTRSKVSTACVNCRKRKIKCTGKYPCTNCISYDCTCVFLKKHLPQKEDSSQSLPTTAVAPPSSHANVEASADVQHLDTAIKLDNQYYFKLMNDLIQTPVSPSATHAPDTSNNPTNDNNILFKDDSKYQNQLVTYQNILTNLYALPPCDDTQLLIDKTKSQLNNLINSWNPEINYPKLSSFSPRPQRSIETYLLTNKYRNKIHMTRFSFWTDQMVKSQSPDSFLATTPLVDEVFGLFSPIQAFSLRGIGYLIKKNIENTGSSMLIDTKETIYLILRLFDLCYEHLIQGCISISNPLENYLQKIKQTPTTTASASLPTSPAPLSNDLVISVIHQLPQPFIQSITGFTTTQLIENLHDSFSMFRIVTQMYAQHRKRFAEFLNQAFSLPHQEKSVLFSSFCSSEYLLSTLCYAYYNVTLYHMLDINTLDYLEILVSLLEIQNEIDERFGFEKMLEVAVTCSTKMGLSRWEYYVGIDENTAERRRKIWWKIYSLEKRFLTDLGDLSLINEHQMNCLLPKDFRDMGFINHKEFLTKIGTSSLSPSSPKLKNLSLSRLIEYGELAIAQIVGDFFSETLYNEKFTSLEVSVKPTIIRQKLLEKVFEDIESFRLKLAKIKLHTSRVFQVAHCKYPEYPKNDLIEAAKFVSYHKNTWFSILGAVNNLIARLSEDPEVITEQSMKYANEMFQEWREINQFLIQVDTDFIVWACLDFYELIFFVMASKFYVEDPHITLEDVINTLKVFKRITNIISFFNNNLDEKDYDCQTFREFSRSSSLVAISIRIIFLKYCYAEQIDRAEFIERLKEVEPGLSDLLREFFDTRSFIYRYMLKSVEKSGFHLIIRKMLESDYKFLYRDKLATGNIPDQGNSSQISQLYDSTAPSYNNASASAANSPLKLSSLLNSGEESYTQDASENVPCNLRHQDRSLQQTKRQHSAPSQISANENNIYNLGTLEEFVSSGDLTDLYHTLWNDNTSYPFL
# Assay: PBM E-score (8-mer binding enrichment) (E-score (-0.5 to 0.5)); higher = stronger / more preferred TF binding; most listed sequences are background and not binding sites
# Conditions: protein concentration: 200 nM; construct: GST-full length
# Procedure: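 Universal 'all 10-mer' protein binding microarrays (Agilent AMADID 015681) probed with GST-tagged S. cerevisiae TFs (full-length or DBD) made by in vitro transcription/translation (PURExpress), about 100-200 nM. Bound TF was detected with fluorescent anti-GST. Each ungapped 8-mer (which stands for itself and its reverse complement) is scored by the PBM enrichment score (E-score), a modified Wilcoxon-Mann-Whitney statistic from -0.5 to +0.5, computed with the Universal PBM Analysis Suite. Scale: above 0.35 generally sequence-specific binding.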
row,Sequence,PBM E-score
1,ACCAAGGC,-0.129
2,CGCAAACG,0.0652
3,CAAACCGG,0.269
4,CGGCGCTA,0.0673
5,GCAGATGA,-0.0783
6,CCTATGTA,-0.16
7,AGCAGGTA,-0.184
8,GTATAGAC,-0.18
9,AATTCTAT,-0.193
10,CCTTTGCG,0.042
11,ACTGAATC,-0.185
12,GAGTCGTA,-0.107
13,GGCCCGTA,0.0625
14,GTTGTGTA,-0.142
15,AGCCCTGA,-0.207
16,AGGAATCA,-0.0475
17,AGTACTGC,-0.11
18,ATGTGCTG,0.134
19,GTCTGTGA,0.00905
20,CCAATCAC,-0.0311
21,TCTAACAA,-0.202
22,TCCCGGCA,0.323
23,CAAGAAAG,-0.0792
24,CCACCCCC,-0.0954
25,CTTGTATA,-0.126

row,Sequence,PBM E-score
1,AGGAACCA,-0.0282
2,CCGTACGA,0.00505
3,CCGGCCGC,0.317
4,CCCACGTA,-0.193
5,AGTCATGC,-0.144
6,CAGGACAA,0.116
7,GAAAATCA,0.00597
8,ACAGTGTC,-0.208
9,TGTCAAAA,-0.102
10,AATTGTAT,0.12
11,ATTTTGGA,0.0645
12,CACTTCCC,0.0703
13,AAAAAAGG,0.204
14,CTGAAATC,0.0707
15,CTCTAGGA,-0.339
16,CTTCACCA,-0.153
17,ACACTCAG,-0.14
18,AGGAAATA,0.121
19,TGGGGCAA,-0.269
20,AGGAATAC,-0.2
21,CGGGTATC,0.196
22,GCGGTCGA,0.17
23,ATACACAG,-0.0459
24,GGGTTATA,-0.131
25,CATAAAGC,-0.27

row,Sequence,PBM E-score
1,CGCCAGAA,0.0188
2,CATTCCAA,-0.102
3,TTAGGAAA,-0.217
4,CTAGAAGA,-0.097
5,AAGCTCCA,-0.114
6,ACCGGCCC,0.0099
7,GATCCGGA,0.437
8,ATAGCATC,-0.101
9,AATTTCGC,0.124
10,ATACGGCG,0.166
11,ATATTTAG,0.0523
12,CCCTTGCA,-0.185
13,GGAGACGA,0.212
14,GCCATGAA,-0.0141
15,CATACGCG,0.152
16,ATGCGGCC,0.107
17,GTCAGACA,0.0194
18,ATACCAAC,0.0867
19,AATTGCTG,0.172
20,ACACGGCT,0.168
21,GATCGTTA,0.0207
22,CCAGGCGA,-0.138
23,ATCAGCTG,0.0392
24,CTTCCGAA,0.385
25,TCCTAAAA,-0.212

row,Sequence,PBM E-score
1,CACCAGAA,-0.258
2,AGGACACA,0.0706
3,GATGACGA,-0.0975
4,CGGCCACC,0.242
5,TAACCCCA,-0.052
6,GCATCGAC,0.0146
7,CCAATGAC,-0.284
8,GATCGCCA,0.0799
9,TGTCGGAA,0.383
10,CATCCATG,-0.064
11,GACCGGAA,0.401
12,GGGAAACA,0.161
13,CCGAACGA,0.238
14,AGCCCGCG,0.381
15,AATGTATG,-0.00059
16,ATTTTTTA,0.107
17,CCAGCCCA,-0.254
18,CCTGAGGC,-0.149
19,CAAACGAC,0.0429
20,AAAGCGTG,0.00059
21,AGGGCGAA,0.0169
22,CTTCGACA,-0.179
23,AGAACGAT,-0.0763
24,ACTAGTAG,-0.221
25,ATGCGCAC,0.081

row,Sequence,PBM E-score
1,CACTCTTA,-0.131
2,GACACCTC,0.0864
3,GCCCGGGC,0.427
4,GCGTGTCA,0.0968
5,ACTCCAGA,-0.136
6,CTTGAAAC,0.0515
7,ACCCGTCT,0.105
8,ACGGAGAG,0.319
9,TCCTCACA,-0.132
10,TACTAAAA,-0.0309
11,GAGAGTGA,-0.0729
12,AAATGTCA,-0.16
13,CGGAATAC,0.427
14,ACACTCTA,-0.0123
15,ATCGTACA,-0.104
16,AGGTCTCA,-0.151
17,CATCCTAG,-0.218
18,AGGAAGAG,-0.0084
19,ATTAAGGG,-0.104
20,GACACCGC,0.135
21,CCGCAGAC,0.173
22,CGTTTTTC,-0.00464
23,ATAAGTAC,-0.0877
24,ACAGAGGC,-0.188
25,CCAAGGCG,0.0196

row,Sequence,PBM E-score
1,AATTAGGA,-0.00973
2,AATTTTTA,-0.0903
3,AACACCCG,0.307
4,ACACCGCA,0.12
5,CCCGCAAG,-0.0789
6,TGAGTGCA,-0.0591
7,AAGAAGGA,-0.099
8,GAGTCAAC,-0.184
9,AAGGATAT,-0.028
10,GCAATTGA,0.0254
11,TCATCCAA,-0.0071
12,AATGAACT,0.177
13,CTGTTAGC,-0.0553
14,GCGGGAGA,0.159
15,CGTGTTTA,0.00463
16,CGCGGACA,0.361
17,CGCTTTAC,-0.0323
18,AACGGGGA,0.164
19,GCCAAGGA,-0.194
20,GCCTGCGA,-0.228
21,CAATCACC,-0.0703
22,AAGATGAC,-0.202
23,AGATTGAG,-0.0419
24,GGAAGTGA,0.217
25,CGCGCGCC,0.241

row,Sequence,PBM E-score
1,CAAAACGC,0.13
2,ACTAAATC,0.144
3,CAGTATAG,0.0503
4,AAAGATGA,-0.16
5,CACACGGC,0.0275
6,GGACCTAC,0.0517
7,CACAGAGG,-0.0837
8,ACACTTCG,-0.13
9,CCTGGCCG,0.136
10,AAATTTCT,-0.0903
11,CCTATGCA,-0.16
12,CTCGTGAC,-0.0864
13,ACGACCAA,-0.178
14,AATTTAAA,0.0569
15,GCTTGGAA,-0.0548
16,AGGTAATG,0.0131
17,AGAGGCAA,-0.153
18,GAGCAATC,0.107
19,GGAGGCCA,0.0283
20,ACCTTCTA,-0.212
21,GCCCCATA,-0.0286
22,ACACGTAC,-0.201
